Experimental data: PubChem BioAssay AID485297 (National Center for Advancing Translational Sciences (NCATS), 2010)
Out of some 320,000 compounds screened, about 9,100 (2.8%) were called active. The shares of active, inactive and inconclusive entries below differ from those in the screen. Calls follow the shape of the dose curve; as a rule, active = well fitted activation curve with a large enough effect; inconclusive = small, poorly fitted or top-dose-only effect; inactive = no such curve, though single readings can be large or run the other way. Potencies beside an inconclusive call are fits to weak or partial responses and may not hold up.

Assay: qHTS Assay for Rab9 Promoter Activators; also: nearly all actives have a fitted effect of over 60% in size; as to activation, negative = inhibition: % of control where 0% means no effect
Conditions: Huh7 Rab9 promoter-luciferase reporter, luminescence, 24 h; series mostly up to 9.22 µM; activation, negative = inhibition: at the top concentration
Method in brief: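 Cell-based reporter: Huh7 stable for Rab9 promoter-driven luciferase, plated in reduced-serum medium with 10% FBS at 1500 cells/well, compound-treated 24 h at 37 °C, luminescence read after 10 min reagent.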
Potency is read from the fitted curve at half-maximal effect; tags tell the direction and shape of the fitted curve.

Potency, active:
COc1ccccc1C(=O)NC(=S)Nc1cccnc1Cl 1 µM
O=c1[nH]c(Nc2nc3ccccc3o2)nc2c1CCCC2 0.316 µM
COCCCN=C1NN=C(c2cc(C)n(-c3ccccc3F)c2C)CS1 0.316 µM
COC(=O)c1c(-c2ccccc2)csc1NC1=NS(=O)(=O)c2ccccc21 2.51 µM
COc1ccc(NC(=O)c2ccc(OC(F)F)cc2)cc1Cl 2.51 µM
Cc1ccc(CSc2ccc(-c3ccco3)nn2)cc1 2.82 µM
CC(C)OC(=O)c1sc2nc(-c3ccccc3)ccc2c1N 0.447 µM
O=C(NCCSc1ccccn1)c1ccc(Cl)cc1 0.631 µM
Cc1c(C(=O)Nc2ccc(N3CCOCC3)cc2)oc2ccccc12 4.47 µM
Cc1cccc(Nc2nc(-c3ccc(F)cc3)cs2)n1 3.55 µM
Cn1sc(NC(=O)c2ccc(Cl)cc2)nc1=O 3.55 µM
CCC(=O)Nc1nc2cc(OC)ccc2s1 1.41 µM
CCNC(=O)NC(=O)COC(=O)c1ccccc1SCC(=O)NC(=O)NCC 2.82 µM

Potency, inconclusive:
COC(=O)c1cccc(-n2c(C)cc(C=O)c2C)c1C 2.51 µM [activator, partial curve]
O=C(Nc1ccc(S(=O)(=O)N2CCCCCC2)cc1)c1[nH]ncc1[N+](=O)[O-] 3.55 µM [activator, partial curve]
O=C(Nc1ccc(F)c(F)c1)c1oc2ccccc2c1NC(=O)C1CCCO1 (stereo unspecified) 3.55 µM [activator, single point]
O=C(c1ccc(CSc2ccccc2)cc1)N1CCCCCC1 3.55 µM [activator, single point]
O=C(Cc1ccccc1)Nc1ccc(CN2CCOCC2)cc1 3.16 µM [activator, partial curve]
COc1ccc(OCc2cc(C(=O)N3CCCCCC3)no2)c(Cl)c1 3.55 µM [activator, partial curve]
CCOC(=O)c1ccc(NC(=O)Nc2ncccc2C)cc1 2.24 µM [activator, partial curve]
Cc1onc(-c2ccccc2)c1C(=O)Nc1nc(-c2ccccc2)cs1 3.98 µM [activator, partial curve]
C/C(=N\Nc1ccc([N+](=O)[O-])cc1)c1cccc(N)c1 5.01 µM [activator, single point]
CCOC(=O)c1ccc(NC(=O)C2CC2)cc1 2.51 µM [activator, partial curve]
Cc1cccc(/C=C\c2nc3ccccc3c(=O)[nH]2)c1 0.891 µM [activator, partial curve]
Cc1ccc(C(=O)Nc2nnc(-c3ccco3)o2)cc1C 3.55 µM [activator, single point]
c1ccc(-c2cc(-c3ccccc3)[nH]n2)cc1 5.62 µM [activator, single point]
COC(=O)c1cccnc1NC(=S)NNC(=O)c1ccccc1 2.24 µM [activator, partial curve]
COc1ccc(C(=O)Cn2c(=N)n(C)c3ccccc32)cc1 2.51 µM [activator, partial curve]
CCn1nnnc1NC(=O)c1cccc(OC)c1 3.55 µM [activator, single point]
CCOc1ccc(NC(=O)c2ccccc2OC)cc1 2.51 µM [activator, partial curve]
CC1CC1C(=O)Nc1nc(-c2ccccc2)cs1 (stereo unspecified) 3.16 µM [activator, partial curve]
Brc1ccc(CSc2ccc(-c3ccco3)nn2)cc1 3.55 µM [activator, single point]
Cc1cc(SCC(=O)c2cccc([N+](=O)[O-])c2)nc(=O)[nH]1 5.01 µM [activator, partial curve]
COc1ccc(C(=O)Nc2nc(C)c(C)s2)cc1OC 6.31 µM [activator, single point]
Cc1ccc(C(=O)Nc2ccc3cn[nH]c3c2)cc1S(=O)(=O)N1CCCCC1 2.51 µM [activator, partial curve]
O=c1c2cn[nH]c2[nH]c(=S)n1-c1ccccc1F 5.62 µM [activator, single point]
O=C(NCCSC1CCCCC1)c1ccccc1 3.55 µM [activator, partial curve]
CCOc1ccc(C(=O)Nc2ccc3c(c2)OCCO3)cc1OC 3.55 µM [activator, single point]
CC(C)(C)n1ncc2c(=O)n(CC(=O)NC3CCCCC3)cnc21 2.82 µM [activator, partial curve]
COc1ccc(NC(=O)ON=C2c3ccccc3-c3ccccc32)cc1 3.98 µM [activator, partial curve, poor fit]

activation, negative = inhibition, inactive:
O=C(CN1CCN(Cc2ccccc2)CC1)NC(=O)NCc1ccco1 3.29%
Cc1ccc(NC(=O)C2COc3ccccc3O2)c(C)c1 (stereo unspecified) 3.79%
Cc1cccc(/C(N)=N/OC(=O)CCCc2ccccc2)c1 8.92%
O=C(Nc1ccc(O)c(-c2nc3ccccc3s2)c1)C1=COCCO1 -1.29%
Cc1nnc(NC(=O)c2cccc(NC(=O)C(C)C)c2)s1 5.1%
Cc1ccc(C)c(-c2cc(C(=O)Nc3sc(C)c(C)c3C(N)=O)c3ccccc3n2)c1 4.19%
O=C(CN1C(=O)CSc2ccc(S(=O)(=O)N3CCCCC3)cc21)NCc1ccccc1Cl 1.74%
O=C(CSc1nc2ccccc2s1)N/N=C/c1cc([N+](=O)[O-])ccc1O -4.48%
Cc1ccc(S(=O)(=O)N2CCN(C(C)C(=O)Nc3ccccc3-c3ccccc3)CC2)cc1 (stereo unspecified) -2.22%
COc1ccc(OCc2n[nH]c(=S)n2N)cc1 -6.39%
O=C(NC1CCCCC1)c1ccc(CS(=O)(=O)Cc2ccccc2F)o1 21.5%
